Test results published in ChEMBL document CHEMBL4888484, “Replenishing the malaria drug discovery pipeline: Screening and hit evaluation of the MMV Hit Generation Library 1 (HGL1) against asexual blood stage Plasmodium falciparum ,using a nano luciferase reporter read-out” (2022).
In all, about 150,000 compounds went through this assay and about 540 (0.36%) showed an effect of 50% or more. This is one part of the list.

These compounds were tested on Plasmodium falciparum (assay: Primary screen in NF54 nanoGlo assay, in single point, at 2uM, 72h; a lower Z score goes with more inhibition). Details: timepoint 72 hour.
Format: functional, Erythrocyte
In the case of `O=C(Nc1ccnc(Oc2ccc(F)cc2F)c1)N1CCC[C@H]1CO`, the “% Inhibition” value is reported as 5% and the Z score is reported as -0.74.
With `Cc1ccc(S(=O)(=O)CCc2cn(C)nn2)cc1` the “% Inhibition” value was -6% and the Z score was 1.08.
`C#CCNC(=O)c1ncc(Br)cc1Br` was tested, and the “% Inhibition” value was -15% and the Z score was 1.36.
`C[C@@H](CNC(=O)c1nc2n(n1)-c1ccccc1S(=O)(=O)N2)c1ccccc1` was tested, and the “% Inhibition” value was 3% and the Z score was -0.47.
For `O=C(Nc1ccc2c(c1)C(=O)N(C[C@H]1CCCO1)C2=O)C(c1ccccc1)c1ccccc1`, the “% Inhibition” value was -12% and the Z score was 1.5.
In the case of `FC(F)[C@H]1CCCN1CC1=CCCOC1`, the “% Inhibition” value is reported as -6% and the Z score is reported as 0.74.
`O=C(CCc1ccsc1)N1CCCCC1` was tested, and the “% Inhibition” value was -10% and the Z score was 1.8.
For `O=C(Nc1ccc2c(c1)OCCO2)N[C@H]1CCCc2occc21`, the “% Inhibition” value was -9% and the Z score was 0.94.
With `CCc1cccc(C)c1NC(=O)C(C)(C)CC` the “% Inhibition” value was -13% and the Z score was 2.08.
`CN(Cc1ccc(-n2cccn2)cc1)C(=O)C[C@@H]1C[C@@H]2C=C[C@H]1C2` was tested, and the “% Inhibition” value was -13% and the Z score was 1.47.
In the case of `Cc1nc2nc(C3CCCCC3)nn2c(C)c1CC(=O)N1CCCCC1`, the “% Inhibition” value is reported as -15% and the Z score is reported as 1.74.
`CCCN1C(=O)c2c(C(=O)NCCc3cccs3)ncn2C[C@@]1(C)C(=O)NCCC(C)C` was tested, and the “% Inhibition” value was -9% and the Z score was 1.43.
`Cc1nc(-c2ccc(-c3noc(-c4cncc(Br)c4)n3)cc2)cs1` was tested, and the “% Inhibition” value was -20% and the Z score was 2.05.
With `C[C@@H](C(=O)N1CCOCC1)N1CCN(Cc2ccc(-c3ccccc3F)s2)CC1` the “% Inhibition” value was -6% and the Z score was 0.71.
With `COCCN(CCOC)c1ccc(-c2nc(-c3ccccc3F)no2)cn1` the “% Inhibition” value was -8% and the Z score was 1.17.
For `O=C(N[C@@H]1CCCc2cccnc21)c1cnn2c1OCCC2`, the “% Inhibition” value was -6% and the Z score was 0.96.
In the case of `Cc1cccc(Nc2nc(-c3cnc(N4CCN(C)CC4)nc3C)cc(=O)[nH]2)c1`, the “% Inhibition” value is reported as 36% and the Z score is reported as -4.66.
With `C[C@@H](c1ccncn1)N(C)Cc1cc(C2CC2)on1` the “% Inhibition” value was -2% and the Z score was 0.31.
`O=C(NCc1ccc(C2CC2)cc1)c1cnn2c1CCCC2` was tested, and the “% Inhibition” value was 1% and the Z score was -0.16.
With `COc1cc(NC(=O)C[C@H]2CCCN(c3cnn(C)c(=O)c3)C2)cc(OC)c1` the “% Inhibition” value was -8% and the Z score was 0.97.
With `O=C(COc1ccc(Cl)cc1Cl)N1CCC[C@H]1c1nc2ccccc2s1` the “% Inhibition” value was 11% and the Z score was -1.39.
With `COc1nc2c(cc1CN1CC[C@@H](CO)[C@@H](O)C1)C(=O)N(C(C)C)C2` the “% Inhibition” value was -6% and the Z score was 1.1.
In the case of `CCn1ncnc1CN(C)Cc1c(C)noc1C`, the “% Inhibition” value is reported as -7% and the Z score is reported as 1.47.
For `Cc1ccc2c(Nc3cccc(C(C)C)c3)c(C(=O)N3CCCCCC3)cnc2n1`, the “% Inhibition” value was -6% and the Z score was 0.95.
In the case of `COC1CCC(N(C)C(=O)[C@@H](C)CC(=O)c2ccccc2F)CC1` (stereo partly specified), the “% Inhibition” value is reported as -11% and the Z score is reported as 1.61.
`O=C(NCCOCC1CC1)C(=O)c1ccc(Br)cc1` was tested, and the “% Inhibition” value was 12% and the Z score was -1.63.
With `Fc1ccc(OCc2nnnn2C2CC2)cc1Cl` the “% Inhibition” value was 0% and the Z score was -0.01.
With `Cc1cc(C(=O)N2CCC[C@H]2c2nnc(-c3ccccc3)[nH]2)nn1C` the “% Inhibition” value was -8% and the Z score was 1.06.
For `O=C(N1CC(n2cccn2)C1)[C@]1(c2ccccc2)CC12CCCC2`, the “% Inhibition” value was -2% and the Z score was 0.34.
For `Cc1ncccc1OC1(C(=O)O)CCN(Cc2cccs2)CC1`, the “% Inhibition” value was -14% and the Z score was 1.22.
In the case of `N#Cc1ccccc1-c1ccc(-c2cn(Cc3ccoc3)nn2)o1`, the “% Inhibition” value is reported as -9% and the Z score is reported as 1.79.
For `CC(C)c1ccc(C#N)c(-c2ccc(C(=O)N3CCc4n[nH]cc4C3)cc2)n1`, the “% Inhibition” value was -11% and the Z score was 1.85.
In the case of `Cc1cc(OC2CCN(C(=O)c3cccn(C)c3=O)CC2)cc(=O)n1C`, the “% Inhibition” value is reported as -4% and the Z score is reported as 0.69.
`Cc1cc(NC(=O)C(c2ccccc2)c2ccccc2)c(O)c(-n2nc3ccccc3n2)c1` was tested, and the “% Inhibition” value was 30% and the Z score was -3.34.
With `CCOc1ccc(C(=O)N2CCN(c3cc(C(C)C)n4cnnc4n3)CC2)cc1` the “% Inhibition” value was -9% and the Z score was 1.25.
For `CN(C)C(=O)N1CCN(C(=O)c2ccncc2F)C(C)(C)C1`, the “% Inhibition” value was -3% and the Z score was 0.42.
In the case of `Cc1noc2c1N=C(c1ccccc1)C[C@@H](c1ccc(O)cc1)C2`, the “% Inhibition” value is reported as -6% and the Z score is reported as 0.75.
With `CC(C)CCn1cc(-c2n[nH]c(C(=O)N(C)C)n2)cn1` the “% Inhibition” value was 4% and the Z score was -0.52.
In the case of `CC(C)COC1CCN(S(=O)(=O)C[C@H]2CCN(C(=O)OCc3ccccc3)C2)CC1`, the “% Inhibition” value is reported as -1% and the Z score is reported as 0.06.
For `CCO[C@H]1C[C@@H](NC(=O)Nc2c(C)noc2C)C1`, the “% Inhibition” value was 33% and the Z score was -3.79.
In the case of `COc1ccsc1S(=O)(=O)N(C)OCc1ccccc1`, the “% Inhibition” value is reported as -12% and the Z score is reported as 2.01.
In the case of `COc1cc(CC2CN(c3ncnc4cc(Cl)ccc34)C2)cc(OC)c1`, the “% Inhibition” value is reported as -1% and the Z score is reported as 0.23.
With `COc1ccc(C[C@@]2(CCC(=O)N3CCN(Cc4cccc(C)c4)C(=O)C3)CCC(=O)N2)c(F)c1` the “% Inhibition” value was 4% and the Z score was -0.41.
With `CC[C@H](C)N(Cc1ccc(OC)c(OS(=O)(=O)c2cccc(C(F)(F)F)c2)c1)C(=O)Nc1ccccc1OC` the “% Inhibition” value was -6% and the Z score was 1.07.
For `O=C(Cn1ccc2ccc(N3CCOCC3)nc21)N1CCN(c2cccc(Cl)c2)CC1`, the “% Inhibition” value was -18% and the Z score was 2.46.
`CCC(=O)N1CCC(NCc2cccc3[nH]ccc23)C(C)C1` (stereo unspecified) was tested, and the “% Inhibition” value was -11% and the Z score was 1.35.
With `Cc1ccc(CNC(=O)C[C@@H]2ON(C)C(=O)N2c2ccc(Cl)cc2)cc1` the “% Inhibition” value was -10% and the Z score was 1.32.
`COc1ccc(NC(=O)c2cc(O)ncn2)c(OC)c1` was tested, and the “% Inhibition” value was -12% and the Z score was 1.93.
In the case of `CO[C@@]12CC[C@H](O)C[C@@H]1N(C(=O)c1c[nH]c(C)cc1=O)CC2`, the “% Inhibition” value is reported as -22% and the Z score is reported as 2.79.
With `O=C(NCC1CCC2(CCOCC2)C1O)c1ccsc1` (stereo unspecified) the “% Inhibition” value was -15% and the Z score was 2.03.
For `CCOC(=O)c1cc2n(n1)C[C@@](C)(C(=O)NC1CCC(C)CC1)N(Cc1cccc(C)c1)C2=O` (stereo partly specified), the “% Inhibition” value was -7% and the Z score was 1.14.
`O=C(NCc1ccoc1)c1ccc2nc(-c3ccc(F)cc3)cn2c1` was tested, and the “% Inhibition” value was -24% and the Z score was 2.4.
For `O=C1O[C@]2(CCCN(C(=O)C3CCC3)C2)c2ccccc21`, the “% Inhibition” value was -4% and the Z score was 0.51.
